{
  "source": "ChEMBL document CHEMBL4888484",
  "about": "“Replenishing the malaria drug discovery pipeline: Screening and hit evaluation of the MMV Hit Generation Library 1 (HGL1) against asexual blood stage Plasmodium falciparum ,using a nano luciferase reporter read-out” (2022)",
  "note": "Screen size: about 150,000 compounds; about 540 (0.36%) showed an effect of 50% or more. Some of the results follow.",
  "data": [
    {"test_system": "Plasmodium falciparum", "assay": "Primary screen in NF54 nanoGlo assay, in single point, at 2uM, 72h; a lower Z score goes with more inhibition", "type": "functional, Erythrocyte", "conditions": "timepoint 72 hour", "units": {"% Inhibition": "%"}, "values": [
      {"smiles": "Cc1ccc(C2CCN(S(=O)(=O)c3ccc(C)o3)CC2)cn1", "% Inhibition": -7, "Z score": 0.72},
      {"smiles": "Cc1ccc(C(=O)Nc2c(C)nc(N3CCOCC3)nc2C)cc1C", "% Inhibition": 13, "Z score": -2.05},
      {"smiles": "C[C@H]1CCCCN1C(=O)COCC(F)(F)F", "% Inhibition": -4, "Z score": 0.4},
      {"smiles": "Cc1nc(NC[C@@H]2N(C)CCCC2(C)C)cc(-c2cccnc2)n1", "% Inhibition": -3, "Z score": 0.63},
      {"smiles": "Cc1cnc([C@@H](NS(=O)(=O)c2cnnn2C)C2CC2)s1", "% Inhibition": -10, "Z score": 1.45},
      {"smiles": "COc1cccc2c1CC[C@H](NCc1ccccc1S(C)(=O)=O)C2", "% Inhibition": -5, "Z score": 0.62},
      {"smiles": "Cc1ccc(C(=O)NCCN(CCN2CCOCC2)C(=O)c2ccc(C)s2)s1", "% Inhibition": -2, "Z score": 0.29},
      {"smiles": "Cn1c(=O)[nH]c(=O)c2cc(S(=O)(=O)Nc3ccc(C(C)(C)C)nn3)cnc21", "% Inhibition": -13, "Z score": 2.44},
      {"smiles": "Cn1ccc2c(-c3nccc(N4CCC[C@H](O)C4)n3)ccnc21", "% Inhibition": 0, "Z score": -0.01},
      {"smiles": "Fc1cccc(Oc2nc(N3CCCCC3)nc3c2CN(Cc2ccccn2)CC3)c1", "% Inhibition": 5, "Z score": -0.73},
      {"smiles": "CCOC(=O)c1n[nH]c2c1C(C)CCC2C(C)C", "note": "(stereo unspecified)", "% Inhibition": -8, "Z score": 0.96},
      {"smiles": "CCOC(=O)[C@H]1CCCN(C(=O)c2cc(-c3ccccc3OC)n3nc(-c4ccccc4)cc3n2)C1", "% Inhibition": -2, "Z score": 0.27},
      {"smiles": "Cc1c(C(=O)N2CCN(c3ccsc3C#N)CC2)ccc2cncn12", "% Inhibition": -8, "Z score": 1.18},
      {"smiles": "O=S(=O)(N[C@H]1CO[C@@H](CN2CCOCC2)[C@@H]1O)c1cccs1", "% Inhibition": -8, "Z score": 1.14},
      {"smiles": "CCCN(C)[C@@H](C)c1nnc(-c2cccs2)o1", "% Inhibition": -10, "Z score": 1.54},
      {"smiles": "CC(=O)Nc1ccc(NC(=O)CNC(C)(C)C)cc1", "% Inhibition": -2, "Z score": 0.38},
      {"smiles": "Cc1ccc(-c2nc(-c3ccc4c(c3)[nH]c(=O)n4C3CCCC3)no2)cc1NC(=O)c1ccco1", "% Inhibition": 1, "Z score": -0.08},
      {"smiles": "CC(=O)NCCn1cnc(-c2ccccc2)c1-c1nc2ccccc2n1C", "% Inhibition": -10, "Z score": 1.96},
      {"smiles": "CCc1ccc(CN2CC[C@H]3CN(C(C)=O)C[C@@]3(CO)C2)cc1", "% Inhibition": -4, "Z score": 0.56},
      {"smiles": "Cn1nc(C2CCCCC2)cc1NCc1cnc(C(C)(C)C)nc1", "% Inhibition": -13, "Z score": 1.4},
      {"smiles": "Cc1nn2c(=O)c3ccccc3nc2n(N)c1=O", "% Inhibition": -9, "Z score": 1.24},
      {"smiles": "Cc1cc(C)c2[nH]c(C(=O)NC[C@H]3CC(Cc4ccc(F)cc4)=NO3)c(C)c2c1", "% Inhibition": -2, "Z score": 0.42},
      {"smiles": "COc1ccc(-c2nn(-c3ccccc3F)cc2CN[C@@H](C)c2nc(C)sc2C)cc1", "% Inhibition": -11, "Z score": 1.62},
      {"smiles": "COC[C@H](C)CS(=O)(=O)N1CCC(c2ccc(Cl)cn2)CC1", "% Inhibition": -4, "Z score": 0.72},
      {"smiles": "Cc1ccc(CC(=O)Nc2cccc(N(C)C(=O)Cc3ccc(C)o3)c2)o1", "% Inhibition": 1, "Z score": -0.14},
      {"smiles": "CC(C)n1nccc1CNc1ccc(C(N)=O)c(Cl)c1", "% Inhibition": -13, "Z score": 1.77},
      {"smiles": "CC(C)CC1(CNC(=O)[C@@H](N)[C@@H](C)O)CCC1", "% Inhibition": -6, "Z score": 0.55},
      {"smiles": "O=C(Nc1ccc(Cl)c(Cl)c1)c1[nH]nnc1-c1cccc(Cl)c1", "% Inhibition": 2, "Z score": -0.33},
      {"smiles": "CC(=O)Nc1ccc(NC(=O)c2cc(CN3CCCC3)on2)cc1", "% Inhibition": -19, "Z score": 1.87},
      {"smiles": "O=S(=O)(Nc1ccccc1)c1cc(S(=O)(=O)c2ccc(Cl)c(S(=O)(=O)Nc3ccccc3)c2)ccc1Cl", "% Inhibition": -7, "Z score": 1.39},
      {"smiles": "CC1CC(NC(=O)NC2CN(Cc3ccccc3)CC2C)CC(C)O1", "note": "(stereo unspecified)", "% Inhibition": -15, "Z score": 1.57},
      {"smiles": "CCn1ccc(C(=O)Nc2ccc(C(=O)NC3CCCCC3)cc2)n1", "% Inhibition": -7, "Z score": 0.84},
      {"smiles": "COc1ccc(-c2cccnc2O)cn1", "% Inhibition": -14, "Z score": 1.35},
      {"smiles": "Cc1noc(C)c1CCC(=O)NCC1CCN(C(=O)N(C)C)CC1", "% Inhibition": -7, "Z score": 0.76},
      {"smiles": "O=C(Cn1cncn1)NCc1cnn2c1CCCC2", "% Inhibition": 10, "Z score": -1.62},
      {"smiles": "CCc1nn(-c2ccc(OC)cc2)c(Oc2ccc(F)cc2F)c1CN(C[C@H]1CCCO1)S(=O)(=O)c1ccc(OC)cc1", "% Inhibition": -13, "Z score": 2.45},
      {"smiles": "O=S(=O)(NCc1ccnc(N2CCN(c3ccc(F)cc3)CC2)c1)c1cccnc1", "% Inhibition": -7, "Z score": 0.96},
      {"smiles": "CN(Cc1cnccn1)C(=O)C[C@@H](c1cccc(O)c1)c1ccccc1Cl", "% Inhibition": 6, "Z score": -1.23},
      {"smiles": "COc1ccc(S(=O)(=O)Oc2ccccc2CN(CC(C)C)C(=O)c2ccccc2Cl)cc1", "% Inhibition": 19, "Z score": -2.74},
      {"smiles": "O=C(NCC1=CCCCC1)c1[nH]nc2c1CCC2", "% Inhibition": -1, "Z score": 0.17},
      {"smiles": "CCN1C[C@@H](C(=O)N2CCc3sc(C(=O)NC)cc3C2)CCC1=O", "% Inhibition": -11, "Z score": 2.26},
      {"smiles": "O=C(NS(=O)(=O)C1COC1)c1cccs1", "% Inhibition": 7, "Z score": -1.11},
      {"smiles": "Cc1cccc(CC(=O)N2CC[C@@H](n3c(=O)[nH]c4cccnc43)C2)c1", "% Inhibition": 4, "Z score": -0.56},
      {"smiles": "COc1ccc(CCC(=O)N2CC[C@H](CCc3noc(C)n3)C2)cc1", "% Inhibition": 0, "Z score": 0.04},
      {"smiles": "O=C(NCCc1ccc(-c2ccsc2)s1)N1CCNC1=O", "% Inhibition": -10, "Z score": 1.96},
      {"smiles": "Cn1cc(Br)cc1C(=O)N1CC(O)(C2CC2)C1", "% Inhibition": 35, "Z score": -4.75},
      {"smiles": "CC(=O)N1CCCN(C[C@@H]2OC[C@H](NC(=O)c3ccc(F)c(Cl)c3)[C@H]2O)CC1", "% Inhibition": -18, "Z score": 3.43},
      {"smiles": "NC(=O)c1cc([C@@H]2CCCCN2C(=O)c2cc(-c3ccccc3)on2)n[nH]1", "% Inhibition": 20, "Z score": -2.64},
      {"smiles": "CC1(C)Cc2ccc(C(=O)NC(C)(C)c3ncccn3)cc2O1", "% Inhibition": 0, "Z score": 0.07},
      {"smiles": "Cc1nc2c(NCCC(=O)Nc3nccs3)ncnc2o1", "% Inhibition": 4, "Z score": -0.52},
      {"smiles": "CCn1cc(CN2CCn3nc(CN4C[C@@H]5C[C@H]4CN5C)cc3C2)cc1C#N", "% Inhibition": 14, "Z score": -1.81},
      {"smiles": "Cc1cc(CN2CCC(Oc3ccc4ccccc4c3)(C(=O)O)CC2)ccc1O", "% Inhibition": -14, "Z score": 1.8},
      {"smiles": "N#Cc1c(N)nc(N2CCOCC2)c(C#N)c1-c1ccccc1", "% Inhibition": 2, "Z score": -0.2}
    ]}
  ]
}
